Laboratory results from the supplement of paper PMC11417369.
± gives the standard deviation of the averaged measurements. This is one part of the list.

tested on: PfAP2-LT AP2 domain (GST-tagged); assay: gcPBM binding intensity (ln(normalized median fluorescence intensity)); higher = stronger DNA binding
Method in brief: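 The highest Masliner-normalised natural-log median intensity across replicate spots of either probe orientation is reported as binding intensity. GST-tagged P. falciparum DNA-binding domains expressed in E. coli were applied for 1 h to an Agilent 4 × 180k array of primer-extended double-stranded 36-bp intergenic genomic probes plus negative controls, and bound protein was detected with Alexa488 anti-GST antibody and scanned at 488 nm.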

In order of rising “gcPBM binding intensity (ln)” value:
1. TTTTTTTTTTTTAAAAGTACATAGTAGTAATTATAG [XGTACX_site4232]  8.14 ± 0.46
2. AATTAAAATTTTTTTTTTTTTTTTTTTTTTCTATTA [CACACA_negctrl_site1585]  8.15 ± 0.56
3. ATTTAAAAAACTTTTAGCAAAAAAAAAAAATAATAA [TGCATGCA_negctrl_site191]  8.21 ± 0.5
4. TTATAAAAAAAAAAAAAAAAGAAAATGAATTCACGA [CACACA_negctrl_site1248]  8.29 ± 0.45
5. AAAAGTTAAGCAACAAATTTTATTTCTTATATATAA [TGCATGCA_negctrl_site134]  8.31 ± 0.47
6. AAATATTATTCTTTTATTTTTAAACATATAATTATA [GTGCAC_negctrl_site136]  8.38 ± 0.47
7. TATTTTTTTTTTTTTTTTTTTACCTTTCCACTCAAA [CACACA_negctrl_site1454]  8.38 ± 0.53
8. TTGTTTTGCTAAAAATGTACTCTATATAAAAGCTTT [XGTACX_site4027]  8.41 ± 0.44
9. TTTATTTATTTATTCTTATTTTTTTTTTTTTTTACT [CACACA_negctrl_site257]  8.42 ± 0.65
10. TAATTTTTTTTTTATTGTACTTAATATTTTTAATTT [XGTACX_site5929]  8.44 ± 0.65
11. TTTTTTACAACACGAAAATGAACAATTATAATAAAT [TGCATGCA_negctrl_site301]  8.5 ± 0.38
12. TTATTATTCATATATTCACACATTAAAATTTTTCAA [CACACA_site4243]  8.51 ± 0.52
13. TATAAAAATAGGATTTGTACATATAAAAAAGGAAAA [XGTACX_site8678]  8.57 ± 0.54
14. TGTTTAAAAATAATTTGTACATATATTTTATTTCAT [XGTACX_site1272]  8.59 ± 0.54
15. TTCGACGAGAGCAAGTGTACTCTTGAATAATTTATA [XGTACX_site7613]  8.59 ± 0.47
16. TGAATTTCAAAACAGTGTACATTAATATATATATAA [XGTACX_site7951]  8.61 ± 0.46
17. TTACAAATATTATAAAGTACAAACCAGTAGATTTTG [XGTACX_site2272]  8.63 ± 0.4
18. ATTATCAAGACATTGCGTACTTAAAAAAAAAAAAAT [XGTACX_site6347]  8.64 ± 0.47
19. TGACCTTATGTGTTTTGAAGGGGAAAGGAAATGCGC [XGTACX_negctrl_site411]  8.65 ± 0.26
20. TTATACACTGATAAAAGTACATTTGTATGTTTTTTT [XGTACX_site8959]  8.65 ± 0.47
21. AAAATTCTTATAAGATGTACAATTTGTAACACTATA [XGTACX_site510]  8.66 ± 0.38
22. TTTTTTTTTTTGTTTTGTACATAAATTGCAACCAAT [XGTACX_site8949]  8.66 ± 0.49
23. GACATTTCTTGGGATACATGCATGTCCCAGAACAAA [TGCATGCA_site271]  8.66 ± 0.37
24. TATAAATATATGTATGCACACATTTTTTTTGGAAAA [CACACA_site1070]  8.68 ± 0.35
25. ATTTATATTAAAAGTGTGCACTTTTTTTTTTTTTTT  8.68 ± 0.46
26. TTTTATAATCATAATAGTACTTTTTCTTTTTCACAT [XGTACX_site5017]  8.69 ± 0.51
27. TTTTGTATATATTATTGTACTTTTAATATAGATCGT [XGTACX_site5830]  8.7 ± 0.42
28. CATATATAATAATATTGTACATATATAATAATAATA [XGTACX_site3338]  8.72 ± 0.53
29. TTTAATAAATTGTGTACACAAAACATATAAATTTCG [CACACA_site5644]  8.72 ± 0.54
30. TCATTCCATACTTTAACACACAAATATATTTAATCC [CACACA_site145]  8.76 ± 0.49
31. TGTTATATATTATATACATGCACAAAAGCAACACAA [TGCATGCA_site1009]  8.76 ± 0.35
32. ATTTCTTTGCTTTTCAAACACACAAAAGTTATTATA [CACACA_site520]  8.77 ± 0.47
33. TAACATAAATCCATACGTACCTATATATATATAATA [XGTACX_site2626]  8.78 ± 0.4
34. AGTAAAAAAAATATCTGTACATATTAATATAAATGT [XGTACX_site6234]  8.79 ± 0.49
35. ATTTTATTTTTTGAGTGTACTAGTTCAACAACTCCG [XGTACX_site8600]  8.79 ± 0.54
36. ATATTTATGACCGTACGTACCTAACAATACAATCAA [XGTACX_site4511]  8.79 ± 0.38
37. TCCTATATCACAAATGTGCACAGAAAAAAAAAATAT  8.8 ± 0.45
38. TTTGTTCTTTTAATGTGTACATATACACTTGTAATA [XGTACX_site2635]  8.82 ± 0.4
39. TATATATACATAAAAACATGCAATATATACACATTA [TGCATGCA_site444]  8.82 ± 0.39
40. AAAAAAAAAAAAAAAACACACATATATATTATTGTA [CACACA_site3979]  8.83 ± 0.3
41. ATGAAGATTTAAAAATGTACATATGATCTATGTCCT [XGTACX_site8409]  8.83 ± 0.54
42. TACTTCGATAATAATCGTACATATATATTGTATTTA [XGTACX_site5700]  8.84 ± 0.35
43. TCATTCTAAATATAAACACACATAAATATGTACATT [CACACA_site7555]  8.84 ± 0.35
44. AAAAAAATTAATGTGTGTACTTAGATATAATGTTTA [XGTACX_site8862]  8.85 ± 0.49
45. CAAAAAATACGATGTTGTACTATGTATTCCTGATGT [XGTACX_site246]  8.86 ± 0.4
46. GAATATTACATGTATTGTACAGGTAATGTTAAAAAT [XGTACX_site8274]  8.87 ± 0.38
47. TATATATCCTTCTATGCATGCATATGGATAGATTTC [TGCATGCA_site58]  8.87 ± 0.34
48. TATATATATTATATATGTACACATATGTGAGAATGA [XGTACX_site2992]  8.88 ± 0.46
49. AACTTTTTTATATGCACACATAAACAAGGATATATA [CACACA_site2874]  8.88 ± 0.31
50. TAATACATAAATGATTGTACATAAGAATTGAAACAT [XGTACX_site4583]  8.9 ± 0.49
51. ATTCATTATTCACCTTGTACACAAATGATTATCGTA [XGTACX_site455]  8.93 ± 0.45
52. TGTAGACTACATAGTAGTACATAATATATACATATA [XGTACX_site367]  8.93 ± 0.59
53. ATATTTATAAATTGCACACAAATAATAACATTATAT [CACACA_site5322]  8.94 ± 0.43
54. ATCTAAAAATTTTACGCACACAAGTAAAAAAAAAAA [CACACA_site2485]  8.94 ± 0.57
55. TTTTTTTTTTTTAATGCACACAGTGAACTTTTACTT [CACACA_site3567]  8.94 ± 0.57
56. ATTTATATGTAGATGTGTACTTAATTGTAATGTGTT [XGTACX_site6422]  8.95 ± 0.45
57. GTGAAGGTTTATATGTGTACATATATGTATTATATA [XGTACX_site326]  8.96 ± 0.41
58. ATAAAGAAATAAAGTTGTACATTATATATATATATA [XGTACX_site7729]  8.98 ± 0.4
59. AAAAATAAAAAAAACACACATACCTTATTTTTGTTC [CACACA_site2634]  8.98 ± 0.42
60. ATGTATGCAAAAATGGTGCATATTAAATGTATAACA [GTGCAC_site9722]  9.01 ± 0.48
61. TATTTATTTAATTACACACGAACATATAACCATTTC [CACACA_site211]  9.01 ± 0.43
62. TATATATATATAATTACACACAATGTTCTATATATA [CACACA_site3235]  9.01 ± 0.38
63. TGTATACATAATATTTGTACATATTGTTATATATAT [XGTACX_site740]  9.01 ± 0.39
64. ATAATATATATATGTAGTACGTATATAATTTTAATA [XGTACX_site5228]  9.01 ± 0.48
65. TCACATACATTACTTACACACCATATTAAGATATAC [CACACA_site4415]  9.02 ± 0.34
66. TAATATAAAAAAGGTACTACACGAAGGAATAAAAAT [XGTACX_site6872]  9.06 ± 0.45
67. AATATATATAATAATTGTACAATACGTATGTTATAT [XGTACX_site8745]  9.06 ± 0.38
68. AATTCAGCTTTACAACGTACACAATCATATGTCTAT [XGTACX_site8113]  9.06 ± 0.41
69. TAATCATAAAAAAATACACACATATAAAATATAGAT [CACACA_site7020]  9.09 ± 0.41
70. GTTGAAAAAAAAAATGCACACGCATACATATAATAT [CACACA_site8117]  9.13 ± 0.35
71. ATATATATATACATACGTACACACAAATATTAAAAT [XGTACX_site4007]  9.13 ± 0.39
72. TTTTTTGTATTTTTCACACACTCTCTATCTCTCTCA [CACACA_site2095]  9.14 ± 0.55
73. TATATATAGAAACACACACACAAAAAAAAAAAAAAA [CACACA_site1506]  9.15 ± 0.46
74. TATCAAAATAAATGCACACAAATTGCACATATCTAT [CACACA_site1097]  9.16 ± 0.37
75. ATTATATATACATATACACACATACGTACATACATA [CACACA_site9194]  9.24 ± 0.28
76. AAATAAATATATAATACACACAAAAATATAAAATGT [CACACA_site3711]  9.28 ± 0.37
77. AAAAAAAAAAGAAACACACACATTTGTCTATAATAT [CACACA_site7063]  9.34 ± 0.53
78. TATAAATAAATAAACACACACAAATAAAATAAAAAA [CACACA_site7623]  9.36 ± 0.4
79. TTTTCTTTTAAACATATATATATATATATATATATA [XGTACX_negctrl_site559]  9.45 ± 0.36
80. AAATTGATATTATATATATATATATATATATATATA [GTGCAC_negctrl_site482]  9.45 ± 0.32
81. CATAAAAATGGATACACACACATAATATATATATAT [CACACA_site3619]  9.52 ± 0.39
82. CAAAAACATACCTACACACACAATATGTATAAATAA [CACACA_site7617]  9.55 ± 0.38
83. TTTTTTTGCCATATTACACACACACCGGTAAACCCC [CACACA_site8475]  9.56 ± 0.35
84. TTATACTCACGTTACACACACACAATATATATATAT [CACACA_site4137]  9.6 ± 0.2
85. ATATATATATATATATGTACATATTCACTTATATTT [XGTACX_site5324]  9.63 ± 0.21
86. CAGAAATAGAGATACACACACACATATATTTATGTA [CACACA_site3968]  9.72 ± 0.46
87. AATAATTTTTTAAACACACACACATATATATATATA [CACACA_site95]  9.78 ± 0.3
88. ATTTCATACAGACACACACACAAACAAACATATATA [CACACA_site979]  9.8 ± 0.28
89. AAAAAAAAAAAAAACACACACACACCCATACACATA [CACACA_site2860]  10.19 ± 0.078
